Experimental data: PubChem BioAssay AID624296 (National Center for Advancing Translational Sciences (NCATS), 2012)
In all, about 350,000 compounds went through this assay and about 9,900 (2.8%) were called active. The inconclusive results got no clear call from the source; some entries with a clear call stand among them for comparison. The call rests on the fitted dose curve; in most records, active means well fitted activation curve with a large enough effect; inconclusive means small, poorly fitted or top-dose-only effect; inactive means no such curve, though single readings can be large or run the other way. Potencies of inconclusive entries are left out as doubtful fits.
Potency means the concentration at half of the fitted maximal effect; tags describe the fitted curve by direction and shape.

Test: A quantitative high throughput screen for small molecules that induce DNA re-replication in MCF 10a normal breast cells. Further: nearly all actives have a fitted effect of over 50% in size. On activity, positive = re-replication: % of control where 0% means no effect.
Conditions: MCF 10A DNA re-replication, Hoechst nuclear intensity, 48 h; activity, positive = re-replication: at 46.1 µM (top of the series)
For `CCCn1c(CN2CCN(C(=O)OCC)CC2)nc2cc(NC(=O)C(C)C)ccc21`, the Potency was inconclusive [activator, full curve, poor fit]. For `Cc1ccc(S(=O)(=O)N2CCN(C(=O)COc3ccc(C)nc3[N+](=O)[O-])CC2)c(C)c1`, the Potency was inconclusive [activator, partial curve, poor fit]. In the case of `O=C(CCCn1c(=S)[nH]c2cc3c(cc2c1=O)OCO3)NCc1cccc(Cl)c1`, the “activity, positive = re-replication” value was inactive: 3.32%. For `Cc1ccc(COc2cccc3c2CCN(Cc2ccc(F)cc2)C3=O)cc1`, the “activity, positive = re-replication” value was inactive: 22.8%. For `CCC(=O)Nc1ccc(Nc2nc(C)c([N+](=O)[O-])c(Nc3ccc(NC(=O)CC)cc3)n2)cc1`, the Potency was inconclusive [activator, single point]. In the case of `O=C(N/N=C/c1ccc2c(c1)OCO2)c1cc(-c2ccc(F)cc2)nc2ccccc12`, the Potency was active: 3.66 µM. For `COc1cccc(N2CCN(C(=O)c3ccc4ccccc4c3)CC2)c1`, the Potency was inconclusive [activator, single point]. In the case of `CCCN(C(=O)C1=COCCO1)c1c(N)n(Cc2ccccc2)c(=O)[nH]c1=O`, the “activity, positive = re-replication” value was inactive: -4.12%. With `Cc1cc2nc(-c3ccc(SCC(=O)N4CCOCC4)nc3)[nH]c2cc1C` the Potency was inconclusive [activator, full curve, poor fit]. For `CCCCCOc1ccc(N2C(=O)CC(N(O)c3ccccc3)C2=O)cc1` (stereo unspecified), the Potency was inconclusive [activator, partial curve, poor fit]. In the case of `N=c1c2c(-c3ccccc3)c(-c3ccccc3)n(Cc3ccco3)c2ncn1CCCO`, the Potency was inconclusive [activator, full curve, poor fit]. For `Cc1ccc(OCCOC(=O)Cn2nc(C)c([N+](=O)[O-])c2C)cc1`, the Potency was inconclusive [activator, partial curve, poor fit]. With `O=C(CCCCCN1C(=O)c2cccc3cccc(c23)C1=O)NCCCO` the Potency was inconclusive [activator, single point]. In the case of `CCCCCCc1cc2cc(-c3nnc(-c4cc(OC)c(OC)c(OC)c4)o3)c(=O)oc2cc1O`, the Potency was active: 0.517 µM. In the case of `c1ccc(CNc2nc(N3CCN(Cc4ccccc4)CC3)nc3ccccc23)cc1`, the Potency was active: 7.31 µM. In the case of `O=C(Nc1nc(-c2cccs2)cs1)c1ccc([N+](=O)[O-])o1`, the Potency was active: 2.91 µM. In the case of `O=C(Cc1ccc(NC(=O)C2CCCN(C(=O)C3CC3)C2)cc1)Nc1ccc(C(=O)N2CCOCC2)cc1` (stereo unspecified), the Potency was inconclusive [activator, partial curve, poor fit]. In the case of `C=COc1ccc(N2C(=O)c3ccccc3OC2C)cc1` (stereo unspecified), the “activity, positive = re-replication” value was inactive: 10.6%. In the case of `Cc1cc(C)c(/C([O-])=C(/C(=S)Nc2ccc(SC(F)F)cc2)[n+]2ccccc2)cc1C`, the Potency was inconclusive [activator, partial curve, poor fit]. With `CC(=O)c1ccc(N2CCN(C(=O)CCc3ccccc3)CC2)cc1` the Potency was inconclusive [activator, single point]. In the case of `COc1ccccc1NC(=O)C(=O)N(c1cccnc1)C(C(=O)NC(C)(C)C)c1ccccc1F` (stereo unspecified), the Potency was inconclusive [activator, partial curve, poor fit]. In the case of `COc1ccc(C(=O)/C=C2\Sc3ccccc3N2C)cc1`, the Potency was inconclusive [activator, single point]. In the case of `Cc1cc(C)nc(N2CCCC(C(=O)NC(C)C)C2)n1` (stereo unspecified), the Potency was inconclusive [activator, single point]. In the case of `Cc1csc2c(C#N)c(=O)c3c(n12)CCC3`, the Potency was inconclusive [activator, full curve, poor fit]. For `O=C(N/N=C/c1c[nH]c2ccccc12)c1cccc([N+](=O)[O-])c1`, the “activity, positive = re-replication” value was inactive: 1.66%. With `O=c1[nH]c(NCCO)nc2ncn(Cc3ccccc3)c12` the “activity, positive = re-replication” value was inactive: -0.51%. In the case of `CCCCCCCCCCCCN1[C@@H](CC(=O)OC)c2cc(F)cc(F)c2S1(=O)=O`, the Potency was inconclusive [activator, single point]. In the case of `CC(=O)N1CCN(C(=O)/C(C#N)=C/c2ccc3c(c2)OCO3)CC1`, the “activity, positive = re-replication” value was inactive: 11%. For `COc1cc(C#Cc2c(-c3cncn3C)n(C)c3ccc(Br)cc23)cc(OC)c1`, the “activity, positive = re-replication” value was inactive: 44.8%. For `CCCCCCCCC1CC(C(=O)Nc2ccccc2)C(=O)O1` (stereo unspecified), the Potency was inconclusive [activator, full curve, poor fit]. In the case of `Cc1c(C(=O)NCc2ccccn2)sc2nc(-c3ccc(F)cc3)cn12`, the Potency was inconclusive [activator, partial curve, poor fit]. In the case of `C=CCn1c(SCC(=O)NCCC2=CCCCC2)nc2ccc(Cl)cc2c1=O`, the “activity, positive = re-replication” value was inactive: 26.1%. With `COc1cccc(C(=O)NC2CCCc3ccccc32)c1` (stereo unspecified) the Potency was inconclusive [activator, single point]. With `CCOC(=O)c1[nH]c(C)c(/C(O)=C2\C(=O)C(=O)N(CCCN(C)C)C2c2cccnc2)c1C` (stereo unspecified) the Potency was inconclusive [activator, partial curve, poor fit]. With `CCOc1ccc(NC(=S)NC(=O)c2ccco2)cc1` the “activity, positive = re-replication” value was inactive: -2.28%. For `Cc1ccc(CNC(=O)C2CCCN(S(=O)(=O)c3c(C)noc3/C=C/N(C)C)C2)cc1` (stereo unspecified), the Potency was active: 14.6 µM. In the case of `COc1ccc(CNC(=O)C2(CC3CC(c4ccccc4)=NO3)CCN(C(=O)CCCCCBr)CC2)cc1` (stereo unspecified), the Potency was inconclusive [activator, partial curve, poor fit]. In the case of `CC(=O)Nc1nc(COc2ccc3ccccc3c2)cs1`, the Potency was inconclusive [activator, partial curve, poor fit]. For `C/C(CCC(C)C)=N\NC(=S)NCc1ccccc1`, the “activity, positive = re-replication” value was inactive: 2.02%. In the case of `CC(C)(C)CN1CCN(Cc2c[nH]c3ccccc23)CC1CCO` (stereo unspecified), the Potency was active: 6.51 µM. In the case of `N#Cc1c(NC(=O)c2ccccc2Cl)n(Cc2ccccc2)c2nc3ccccc3nc12`, the Potency was inconclusive [activator, partial curve, poor fit]. With `Nc1nonc1C(=O)NCCNC(=O)c1ccc(Cl)c(Cl)c1` the “activity, positive = re-replication” value was inactive: -5.11%. With `COc1ccc(OC(=O)c2cccc([N+](=O)[O-])c2)c(C(=O)/C=C/c2cccs2)c1` the Potency was inconclusive [activator, partial curve, poor fit]. In the case of `Cc1sc(NC(=O)c2ccccc2)c(C(=O)NCCN(C)C)c1C`, the Potency was inconclusive [activator, single point]. With `CN(C)CCn1c(=O)n(Cc2ccco2)c(=O)c2c3c(sc21)CCCCC3` the Potency was inconclusive [activator, partial curve]. For `CSc1nccc(Oc2ccccc2Cl)n1`, the Potency was inconclusive [activator, single point]. In the case of `Cc1ccc(NC(=O)CSc2nnc(-c3ccccc3Br)o2)cc1C`, the “activity, positive = re-replication” value was inactive: 6.13%. In the case of `CN(c1ccccc1)S(=O)(=O)c1nnc(NC(=O)C2CCCCC2)s1`, the “activity, positive = re-replication” value was inactive: -0.386%. With `O=C(NC(=S)Nc1cccc(O)c1)c1cncc(Br)c1` the Potency was inconclusive [activator, partial curve, poor fit]. For `O=C(CSc1nnc(-c2ccncc2)n1-c1ccccc1)N1CCN(c2ccc(Cl)cc2)CC1`, the Potency was inconclusive [activator, partial curve, poor fit]. For `CC(C)(C)OC(=O)N1CCN(c2ccc(NC(=O)Cn3nnc(-c4ccccc4)n3)cc2)CC1`, the Potency was inconclusive [activator, partial curve, poor fit]. For `O=C(CN1C(=O)C(=O)N(C2CCCC2)C1=O)Nc1ccc(F)cc1F`, the Potency was inconclusive [activator, single point]. In the case of `Cc1cc2cc(CNC(=O)C3CCCC3)ccc2n1C`, the Potency was inconclusive [activator, partial curve, poor fit]. With `O=C(N=Nc1c(O)[nH]c2ccc(Br)cc12)c1cc(-c2cccs2)nc2ccccc12` the Potency was inconclusive [activator, single point]. With `CC(C)c1ccc(NC(=S)NNC(=O)c2cccnc2)cc1` the Potency was inconclusive [activator, single point]. In the case of `CC1CC(C)CN(C(=O)C2CCN(S(=O)(=O)c3c(Cl)cccc3Cl)CC2)C1` (stereo unspecified), the Potency was inconclusive [activator, partial curve, poor fit]. In the case of `N#C/C(=N\Nc1cccc(F)c1)C(=O)C1CC1`, the Potency was inconclusive [activator, single point]. For `CC(=O)NC(=S)Nc1ccccc1C(=O)NC1CCCCC1`, the “activity, positive = re-replication” value was inactive: 5.81%. With `O=C(NCCCN1CCCC1)C1CCC(=O)N1C1CCCCC1` (stereo unspecified) the “activity, positive = re-replication” value was inactive: -2.79%. With `COc1ccc(NC(=O)c2ccc(COc3ccccc3Br)o2)cc1OC` the Potency was active: 11.6 µM. In the case of `COc1ccc(C(C(=O)NC2CCCCC2)N(C(=O)c2cccs2)c2ccc3c(c2)OCO3)cc1` (stereo unspecified), the Potency was inconclusive [activator, partial curve, poor fit]. In the case of `Cc1ccc(-c2nnn(CC(=O)NCCc3ccc4c(c3)OCO4)n2)cc1`, the Potency was inconclusive [activator, partial curve, poor fit]. In the case of `Cc1sc2ncnc(N3CCC(C(=O)NNC(=O)c4ccccc4Cl)CC3)c2c1C`, the Potency was inconclusive [activator, single point]. In the case of `O=C1CCCN2N=C(SCC(=O)Nc3ccc(Cl)cc3)SC2=N1`, the Potency was inconclusive [activator, single point]. In the case of `CCc1c(C)c(C#N)c2[nH]c3ccccc3n2c1=S`, the Potency was inconclusive [activator, partial curve, poor fit]. For `Cc1ccc(S(=O)(=O)CC(O)COc2ccc(F)cc2Cl)c(C)c1` (stereo unspecified), the Potency was inconclusive [activator, single point].
